Experimental data reported in PMC13083723 (Patterns, 2026).
In all, about 5,400 compounds went through this assay and about 190 (3.5%) showed an effect of 50% or more. Some of the results follow.

What follows are compounds tested on Vero-E6 (assay: primary screen, phospholipidosis by LipidTOX staining; higher = more effect of the substance). Details: 10 µM.
Description: To measure drug-induced PLD in Vero-E6 cells, we used the HCS LipidTOX Red Phospholipidosis Detection Reagent (Invitrogen, #H34351), which is non-toxic to cell growth and remains well retained after aldehyde fixation. In this setup, compounds (at 10 μM concentration) and controls (amiodarone: 10 μM concentration; DMSO: 0.1 v/v %) were added to clear-bottom, 384-well plates (PhenoPlate 384-well, black, optically clear flat bottom, tissue-culture treated, Revvity #6057302) using the Echo Liquid Handler (Labcyte).

| Compound | result_ITMP |
| --- | --- |
| CCc1cccc(N(C)C(=N)Nc2cccc3ccccc23)c1 | 34.8% |
| CC(=O)c1cnc2ccc(-c3cc(Cl)c(O)c(Cl)c3)nc2c1N[C@H]1CC[C@H](CN(C)C)CC1 | -0.83% |
| O=C1NC(=O)[C@@]2(CCOc3ccc(F)cc32)N1 | -0.1% |
| N#CC(Cc1ccc(O)cc1)c1ccc(O)cc1 (stereo not drawn) | -1.76% |
| C=CC(=O)N1CCN(C(=O)CNc2cc(I)c(Cl)cc2O)CC1 | 1.66% |
| Oc1ccc(CC2NCCc3cc(O)c(O)cc32)cc1 (stereo not drawn) | -3.06% |
| Cc1ncc[nH]1 | 0.94% |
| Clc1ccc(C(Cn2ccnc2)OCc2c(Cl)cccc2Cl)c(Cl)c1 (stereo not drawn) | 1.21% |
| COc1ccc2cc1Oc1cc3c(cc1OC)CC[N+](C)(C)[C@H]3Cc1ccc(cc1)Oc1c(OC)c(OC)cc3c1[C@@H](C2)[N+](C)(C)CC3 | -4.69% |
| NC(=O)N1c2ccccc2C=Cc2ccccc21 | -1.44% |
| O=c1ncccn1[C@@H]1O[C@H](CO)[C@@H](O)[C@H]1O | -5.42% |
| O=C(CCCCCCNC(=O)c1cnc(N(c2ccccc2)c2ccccc2)nc1)NO | 1.06% |
| CN(C)CCN(Cc1cccs1)c1ccccn1 | -0.5% |
| CC(C)N(CCNC(=O)CN1CCCC1=O)C(C)C | -5.97% |
| COc1c(O[C@@H]2O[C@H](CO)[C@@H](O)[C@H](O)[C@H]2O)cc2c(c1OC)-c1ccc(SC)c(=O)cc1[C@@H](NC(C)=O)CC2 | -10.8% |
| NC(CO)(CO)CO | -3.2% |
| COc1ccc(C2CNC(=O)NC2)cc1O[C@H]1C[C@@H]2CC[C@H]1C2 | -5.61% |
| C[C@@H](N)[C@H]1CC[C@H](C(=O)Nc2ccncc2)CC1 | -1.53% |
| O=C(Cn1ccnc1[N+](=O)[O-])NCCO | -7.98% |
| O=C(NNC(=O)c1ccc(CNS(=O)(=O)c2ccc(F)c(Cl)c2)cc1)c1ccccc1 | 0.07% |
| C[C@@H]1CN(CCCn2c3ccccc3c3ccccc32)C[C@H](C)N1 | 99.9% |
| COC(=O)CC1CC(c2ccc(O)cc2)=NO1 (stereo not drawn) | 0.59% |

| Compound | result_ITMP |
| --- | --- |
| CNCC(=O)c1ccc(O)c(O)c1 | 0.92% |
| Oc1cccc(Nc2ncc(F)c(Nc3cccc(O)c3)n2)c1 | -1.2% |
| O=c1cc(-c2ccc(O)cc2)oc2cc(O)cc(O)c12 | -0.77% |
| O=C(NC(=O)c1c(F)cccc1F)Nc1cc(Cl)c(OC(F)(F)C(F)C(F)(F)F)cc1Cl (stereo not drawn) | 4.83% |
| CCn1cc(C(=O)[O-])c(=O)c2cc3c(cc21)OCO3 | -4.34% |
| C[C@H](NC(=O)c1sccc1OCc1ccc(Cl)cc1)c1ccccc1 | 1.11% |
| Cc1ccc(C)c(Oc2ccncc2C(=O)N2CCN(C3CC3)c3ccccc32)c1 | -4.61% |
| C#C[C@]1(O)CC[C@H]2[C@@H]3CCc4cc(OC)ccc4[C@H]3CC[C@@]21C | -2.71% |
| COc1ccc(-c2ccc3c(N4CCOCC4)nc(N4C[C@@H](C)O[C@@H](C)C4)nc3n2)cc1CO | 1.47% |
| CN(C)C(=O)c1ccc(S(=O)(=O)c2ccc(NC(=O)[C@@](C)(O)C(F)(F)F)c(Cl)c2)cc1 | 2.45% |
| CN(C)CCCCSC(=N)N | -0.13% |
| COc1ccc2cccc(CCNC(C)=O)c2c1 | -3.76% |
| COc1cc(C=O)ccc1O | -2.56% |
| CNc1ncc2cc(-c3cc(NC(=O)NCCC(C)(C)C)c(F)cc3C)c(C)nc2n1 | -7.16% |
| Cc1[nH]c(/C=C2\C(=O)Nc3ccccc32)c(C)c1CCC(=O)O | 0.37% |
| CC1(C)CC[C@]2(NC(=O)C(C)(F)F)CC[C@]3(C)C(C(=O)C=C4[C@@]5(C)C=C(C#N)C(=O)C(C)(C)[C@@H]5CC[C@]43C)C2C1 (stereo partly drawn) | -22.1% |
| COc1cc[nH]c2ncc(C(=O)C(=O)N3CCN(C(=O)c4ccccc4)C[C@H]3C)c1-2 | -6.29% |
| CN(CCOc1ccc(NS(C)(=O)=O)cc1)CCc1ccc(NS(C)(=O)=O)cc1 | -1.68% |
| O=C(NO)C1(CS(=O)(=O)c2ccc(Oc3ccc(Cl)cc3)cc2)CCOCC1 | 0.16% |
| CCN(CC)CCCC(C)Nc1c2ccc(Cl)cc2nc2ccc(OC)cc12 (stereo not drawn) | 110% |
| COc1cc(OC)cc(N(CCNC(C)C)c2ccc3ncc(-c4cnn(C)c4)nc3c2)c1 | 55.2% |
| Cc1nc(C)c(Cl)c(O)c1Cl | 6.4% |

| Compound | result_ITMP |
| --- | --- |
| CCc1cccc(CC)c1NC(=O)c1nn(C)c2c1CCc1cnc(Nc3ccc(C(=O)NC4CCN(C)CC4)cc3OC(F)(F)F)nc1-2 | 7.96% |
| Cc1onc(-c2ccccc2Cl)c1C(=O)N[C@@H]1C(=O)N2[C@@H]1SC(C)(C)[C@@H]2C(=O)[O-] | 4.56% |
| CCCCCCCCCCCCCCCC[N+](C)(C)CCN(Cc1ccc(OC)cc1)c1ncccn1 | 1.84% |
| CC(C)(C)NS(=O)(=O)c1cncc(-c2cc(F)c3nc(N)nn3c2)c1 | -0.73% |
| C[C@@H]1CC[C@H]2[C@@H](C)C(=O)O[C@@H]3O[C@@]4(C)CC[C@@H]1[C@]32OO4 | -7.24% |
| OC1(c2ccc(Cl)cc2)c2ccccc2C2=NCCN21 (stereo not drawn) | 4.81% |
| NS(=O)(=O)c1ccc(C(=O)O)cc1 | 6.06% |
| COc1cc2ncnc(Nc3ccc(Cl)cc3F)c2cc1OC | -0.91% |
| Oc1ccc(Nc2nc(-c3ccc(Cl)cc3)cs2)cc1 | -1.8% |
| CNC(=O)c1c(C)oc2cc(Oc3ncnc4cc(OC)c(OC)cc34)ccc12 | -2.33% |
| NC(=O)[C@@H]1CC[C@@H]2CN1C(=O)N2OS(=O)(=O)[O-] | -0.26% |
| N#Cc1ccc2[nH]c(O)c(-c3ccc(CN4CCOCC4)cn3)c2c1 | 4.84% |
| N[C@@H]1CCCN(c2c(/C=C3\SC(=O)NC3=O)cccc2-c2ccccc2)C1 | 25.3% |
| Cc1cccc(CCN2CCC(C(=O)c3ccc(NS(C)(=O)=O)cc3)CC2)n1 | -0.9% |
| CO[C@H]1C[C@@H]2CC[C@@H](C)[C@@](O)(O2)C(=O)C(=O)N2CCCC[C@H]2C(=O)O[C@H]([C@H](C)C[C@@H]2CC[C@@H](O)[C@H](OC)C2)CC(=O)[C@H](C)/C=C(\C)[C@@H](O)[C@@H](OC)C(=O)[C@H](C)C[C@H](C)/C=C/C=C/C=C/1C | -0.12% |
| CCOc1ccccc1C(N)=O | 17.2% |
| CC[C@@]1(C2O[C@@H](C3O[C@@](O)(CO)[C@H](C)C[C@@H]3C)C[C@@H]2C)CC[C@H]([C@]2(C)CCC3(C[C@H](O)[C@@H](C)[C@@H]([C@H](C)[C@@H](OC)[C@H](C)C(=O)[O-])O3)O2)O1 (stereo partly drawn) | -2.43% |
| C1CCC(NC2CCCCC2)CC1 | -9.39% |
| CCC(=O)NO | -5.29% |
| Cc1nc(Nc2n[nH]c3c2CN(C(=O)N[C@H](CN(C)C)c2ccccc2)C3(C)C)c2sccc2n1 | 1.28% |
| CN1C(=O)CC(C)(c2ccccc2)C1=O (stereo not drawn) | 7.24% |
| CCOc1ccn(-c2ccc(F)cc2)c(=O)c1C(=O)Nc1ccc(Oc2ccnc(N)c2Cl)c(F)c1 | -1.97% |

| Compound | result_ITMP |
| --- | --- |
| CCC(=O)NS(=O)(=O)c1ccc(-c2c(-c3ccccc3)noc2C)cc1 | -0.09% |
| CC(C)=CCC/C(C)=C/CC/C(C)=C/C=C/C(C)=C/C(=O)O | 0.07% |
| CCn1cc(-c2ccnc3[nH]c(-c4cccc(CN(C)C)c4)cc23)c(-c2ccc(NC(=O)N(C)C)cc2)n1 | 27.7% |
| CCCCCCN(CCCCCC)C(=O)Cc1c(-c2ccc(F)cc2)[nH]c2ccccc12 | -8.09% |
| CCN(CC)CCNC(=O)c1ccc(NC(C)=O)cc1 | -8.7% |
| N[C@@H]1CN(c2c(F)cc3c(=O)c(C(=O)O)cn([C@@H]4C[C@@H]4F)c3c2Cl)CC12CC2 | 2.48% |
| CC(=O)NNC(=O)N1Cc2ccccc2Oc2ccc(Cl)cc21 | -0.36% |
| O=C([O-])[C@H](O)[C@@H](O)[C@H](O)[C@H](O)CO | -4.67% |
| CNC[C@H](O)c1cccc(O)c1 | -3.1% |
| O=S(=O)([O-])CCSSCCS(=O)(=O)[O-] | -11.7% |
| O=C1Nc2cc(Cl)c(Cl)cc2N2CCNCC12 (stereo not drawn) | 3.03% |
| C[C@@H]1O[C@@H](O[C@@H]2[C@@H](O)[C@H](OCCc3ccc(O)c(O)c3)O[C@H](CO)[C@H]2OC(=O)/C=C/c2ccc(O)c(O)c2)[C@H](O)[C@H](O)[C@H]1O | 0.72% |
| CC(C)C1=C2[C@H]3CC[C@@H]4[C@@]5(C)CC[C@H](OC(=O)CC(C)(C)C(=O)O)C(C)(C)[C@@H]5CC[C@@]4(C)[C@]3(C)CC[C@@]2([C@@H](O)CN(CCN(C)C)Cc2ccc(Cl)cc2)CC1=O | 0.12% |
| CCOC(=O)[C@H](CCc1ccccc1)N[C@@H](C)C(=O)N1[C@H](C(=O)O)C[C@H]2CCCC[C@@H]21 | -5.12% |
| O=C(O[C@@H]1Cc2c(O)cc(O)cc2O[C@@H]1c1cc(O)c(O)c(O)c1)c1cc(O)c(O)c(O)c1 | -2.35% |
| CC(C)C[C@H](NC(=O)CNC(=O)c1cc(Cl)ccc1Cl)B(O)O | 2.32% |
| CC(C)(C)NCC(O)COc1cccc2[nH]c(C#N)cc12 (stereo not drawn) | -4.94% |
| CCN(CC)CCN(Cc1ccc(-c2ccc(C(F)(F)F)cc2)cc1)C(=O)Cn1c(SCc2ccc(F)cc2)nc(=O)c2c1CCC2 | 29.1% |
| N#C[C@@H]1CCCN1C(=O)CNC12CC3CC(CC(O)(C3)C1)C2 | -5.49% |
| CN(C)CCCSc1ccccc1NC(=O)/C=C/c1ccccc1 | 8.24% |
| CN1C(=O)N(c2cc(Cl)cc(Cl)c2)C(=O)[C@]12CN(c1ccc(C(=O)O)cn1)C[C@H]2c1ccc(C#N)cc1 | -0.07% |
